# In patent US8580752B2, “Aromatic amides as potentiators of bioefficacy of anti-infective drugs” (priority 2005, dated 2013):
# Key:
# [1] = system: MRSA 450; experiment: MIC by checkerboard method; type: cell-based, Staphylococcus aureus; conditions: S aureus MRSA 450
# [2] = system: M. tb; experiment: MIC of anti infective drugs alone and with potentiators; type: cell-based, Mycobacterium tuberculosis
# [3] = system: S aureus ATCC 29213; experiment: MIC by checkerboard method; type: cell-based, Staphylococcus aureus; conditions: for MIC Amikacin / MIC Ciprofloxacin / MIC Mupirocin: Tables 5A/5B
# [4] = system: M. tuberculosis H37Rv; experiment: MIC by checkerboard method; type: cell-based, Mycobacterium tuberculosis; conditions: Tables 5A/5B
# [5] = system: Gm +ve bacteria; type: cell-based, Gram positive
# [6] = system: MRSA 33; experiment: MIC by checkerboard method; type: cell-based, Staphylococcus aureus; conditions: S aureus MRSA 33
# [7] = system: MRSA 15187; experiment: MIC by checkerboard method; type: cell-based, Staphylococcus aureus; conditions: S aureus MRSA 15187
# [8] = system: Gm −ve bacteria; type: cell-based, Gram negative
# [9] = system: MRSA; experiment: MIC by checkerboard method, comparison with piperine; type: cell-based, Staphylococcus aureus; conditions: Tables 5A/5B
# [10] = with compound of formula 1a 12.5 μg/ml
# [11] = with compound of formula 1a 25.0 μg/ml
# [12] = with compound of formula 1a 50.0 μg/ml
# [13] = Ofloxacin + potentiator vs drug alone
# [14] = with the labelled potentiator +6.25 μg/ml
# [15] = with the labelled potentiator +12.5 μg/ml
# [16] = with the labelled potentiator +25.0 μg/ml
# [17] = with the labelled potentiator +50.0 μg/ml
# [18] = Norfloxacin + potentiator vs drug alone
structure (smiles),measurement,setting,value
"CCC(/C=C/C(=O)N1CCCCC1)=C\c1ccc2c(c1)OCO2 [compound of formula 1a, 4-ethyl-5-(3,4-methylenedioxyphenyl)-2E,4E-pentadienoic acid piperidine amide]",MIC of Mupirocin,[1]; [10],0.12 µg/mL
same,MIC of Mupirocin,[1]; [11],0.12 µg/mL
same,MIC of Mupirocin,[1]; [12],0.06 µg/mL
same,MIC Drug + potentiator,[2]; Ciprofloxacin + potentiator,0.25 to 0.5 µg/mL
same,% decrease in MIC,[2]; Ciprofloxacin + potentiator vs drug alone,50%
same,MIC Drug + potentiator,[2]; Ofloxacin + potentiator,0.5 to 1.25 µg/mL
same,% decrease in MIC,[2]; [13],0-50%
same,MIC Amikacin,[3]; [14],1.0 µg/mL
same,MIC Ciprofloxacin,[3]; [14],0.12 µg/mL
same,MIC Mupirocin,[3]; [14],0.12 µg/mL
same,MIC Amikacin,[3]; [15],1.0 µg/mL
same,MIC Ciprofloxacin,[3]; [15],0.06 µg/mL
same,MIC Mupirocin,[3]; [15],0.06 µg/mL
same,MIC Amikacin,[3]; [16],0.5 µg/mL
same,MIC Ciprofloxacin,[3]; [16],0.06 µg/mL
same,MIC Mupirocin,[3]; [16],0.06 µg/mL
same,MIC Amikacin,[3]; [17],0.12 µg/mL
same,MIC Ciprofloxacin,[3]; [17],0.03 µg/mL
same,MIC Mupirocin,[3]; [17],0.06 µg/mL
same,MIC of Mupirocin,[3]; [10],0.06 µg/mL
same,MIC of Mupirocin,[3]; [11],0.06 µg/mL
same,MIC of Mupirocin,[3]; [12],0.03 µg/mL
same,MIC Rifampicin,[4]; [14],0.12 µg/mL
same,MIC Rifampicin,[4]; [15],0.06 µg/mL
same,MIC Rifampicin,[4]; [16],0.015 µg/mL
same,MIC Drug + potentiator,[5]; Norfloxacin + potentiator,0.06 to 4 µg/mL
same,% decrease in MIC,[5]; [18],50-97%
same,MIC Drug + potentiator,[5]; Ofloxacin + potentiator,0.06 to 8 µg/mL
same,% decrease in MIC,[5]; [13],50-76%
same,MIC of Mupirocin,[6]; [10],0.06 µg/mL
same,MIC of Mupirocin,[6]; [11],0.03 µg/mL
same,MIC of Mupirocin,[6]; [12],0.03 µg/mL
same,MIC of Mupirocin,[7]; [10],0.12 µg/mL
same,MIC of Mupirocin,[7]; [11],0.06 µg/mL
same,MIC of Mupirocin,[7]; [12],0.06 µg/mL
same,MIC Drug + potentiator,[8]; Norfloxacin + potentiator,0.03 to 32 µg/mL
same,% decrease in MIC,[8]; [18],0-50%
same,MIC Drug + potentiator,[8]; Ofloxacin + potentiator,0.03 to 16 µg/mL
same,% decrease in MIC,[8]; [13],50%
same,MIC Amikacin,[9]; [14],4.0 µg/mL
same,MIC Ciprofloxacin,[9]; [14],32 µg/mL
same,MIC Mupirocin,[9]; [14],0.12 µg/mL
same,MIC Amikacin,[9]; [15],4.0 µg/mL
same,MIC Ciprofloxacin,[9]; [15],16 µg/mL
same,MIC Mupirocin,[9]; [15],0.06 µg/mL
same,MIC Amikacin,[9]; [16],4.0 µg/mL
same,MIC Ciprofloxacin,[9]; [16],16 µg/mL
same,MIC Mupirocin,[9]; [16],0.06 µg/mL
same,MIC Amikacin,[9]; [17],4.0 µg/mL
same,MIC Ciprofloxacin,[9]; [17],8.0 µg/mL
same,MIC Mupirocin,[9]; [17],0.03 µg/mL

# Read-outs that look alike come from different tables or passages of the source.
